Results taken from paper PMC4336329 (PLoS ONE, 2015).
Out of some 310,000 compounds screened, about 2,200 (0.71%) showed an effect of 50% or more. The effect is printed as a negative number. The list shows a part of the results.

Target: human ether-à-go-go-related gene (hERG) potassium channel (human, UniProt Q12809)
Test: primary screen, population patch clamp on CHO cells stably expressing hERG

Chain of human ether-à-go-go-related gene (hERG) potassium channel (Q12809 whole entry, looked up): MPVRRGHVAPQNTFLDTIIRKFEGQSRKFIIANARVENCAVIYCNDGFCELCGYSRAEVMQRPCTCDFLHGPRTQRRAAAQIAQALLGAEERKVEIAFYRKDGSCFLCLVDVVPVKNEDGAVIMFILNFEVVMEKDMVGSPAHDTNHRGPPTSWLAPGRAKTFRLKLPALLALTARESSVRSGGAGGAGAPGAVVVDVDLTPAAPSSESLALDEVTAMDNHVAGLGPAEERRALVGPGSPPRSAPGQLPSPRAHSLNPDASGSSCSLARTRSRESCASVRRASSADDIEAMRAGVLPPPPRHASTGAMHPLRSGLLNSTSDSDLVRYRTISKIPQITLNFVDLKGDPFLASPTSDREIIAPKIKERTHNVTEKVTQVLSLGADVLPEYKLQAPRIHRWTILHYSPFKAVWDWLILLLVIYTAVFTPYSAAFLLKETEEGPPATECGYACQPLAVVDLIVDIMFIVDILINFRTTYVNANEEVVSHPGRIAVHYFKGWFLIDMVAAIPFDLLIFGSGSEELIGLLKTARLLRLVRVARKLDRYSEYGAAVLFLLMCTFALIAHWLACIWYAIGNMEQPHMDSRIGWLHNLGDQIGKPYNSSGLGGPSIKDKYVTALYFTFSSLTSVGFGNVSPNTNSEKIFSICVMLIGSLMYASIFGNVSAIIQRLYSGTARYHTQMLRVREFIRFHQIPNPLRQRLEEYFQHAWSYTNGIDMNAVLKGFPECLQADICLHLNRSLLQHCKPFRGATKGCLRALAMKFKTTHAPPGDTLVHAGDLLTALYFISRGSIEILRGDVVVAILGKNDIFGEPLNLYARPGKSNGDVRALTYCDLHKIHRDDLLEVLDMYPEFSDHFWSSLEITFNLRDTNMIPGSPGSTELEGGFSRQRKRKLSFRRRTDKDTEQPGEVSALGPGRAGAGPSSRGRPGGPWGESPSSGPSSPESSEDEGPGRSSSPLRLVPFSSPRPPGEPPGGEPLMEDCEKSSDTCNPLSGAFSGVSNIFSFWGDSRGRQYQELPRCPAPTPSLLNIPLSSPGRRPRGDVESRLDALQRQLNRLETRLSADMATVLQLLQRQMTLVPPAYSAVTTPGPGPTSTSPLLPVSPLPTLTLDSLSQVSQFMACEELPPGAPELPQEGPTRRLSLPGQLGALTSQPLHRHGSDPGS

Going from `CCN(CC)CCC#CC(O)(c1ccccc1)C1CCCCC1` (centres unmarked) to `CSC1=NC2(C[C@H]2c2ccccc2)C(=O)N1C` (some centres unmarked), the “hERG current change (%, negative = inhibition) at 1uM” value rises from 4.82% to 15%.

First: O=C(NCc1ccccc1)c1ccc(NS(=O)(=O)c2cccs2)cc1
Second: Oc1ccc(NCc2cccc(OCc3ccccc3)c2)cc1
The “hERG current change (%, negative = inhibition) at 1uM” value of the first is lower: 0.454% for the first, 6.71% for the second.

Compared with `Cc1nc2ccc(S(=O)(=O)NCC(=O)Nc3ccc(F)cc3)cc2s1`, `Cc1nn(Cc2ccccc2Cl)c(C)c1NC(=O)c1cc(-c2ccc(F)cc2)on1` is lower in “hERG current change (%, negative = inhibition) at 1uM” value: 13.1% for the first, -1.82% for the second.

Going from `CCCc1nnc(SCc2ccc(OC)cc2)n1N` to `COc1ccc(NC2CCCN(C(=O)c3cc(CC(C)C)nc(N)n3)C2)cc1` (centres unmarked), the “hERG current change (%, negative = inhibition) at 1uM” value rises from 8.6% to 16.7%.

First: O=C(Cn1ncc2c([nH]c3ccccc32)c1=O)Nc1cccnc1
Second: O=C(O)Cn1nnn(-c2ccccc2)c1=S
The “hERG current change (%, negative = inhibition) at 1uM” value of the first is lower: 6.51% for the first, 9.44% for the second.

First: Cc1ccc(OCCCn2cc(C#N)c3ccccc32)cc1
Second: COc1ccc(NC(=O)CCOc2ccc(C)cc2)c(OC)c1
The “hERG current change (%, negative = inhibition) at 1uM” value of the first is lower: 9.55% for the first, 23.3% for the second.

Compared with `Cc1cccc2c(=O)c(-c3ccc(Cl)cc3)c(NC(=O)c3ccco3)oc12`, `CSc1ccccc1NC(=O)C1=CC(c2ccc(C)cc2)=NS(=O)(=O)N1C` is lower in “hERG current change (%, negative = inhibition) at 1uM” value: 12.7% for the first, 3% for the second.

First: CC/C(=N\NC(=O)c1ccccc1)c1c(O)n(Cc2ccccc2)c(=O)[nH]c1=O
Second: CCN(CCNC(=O)c1ccc2nc(-c3ccccc3NC(C)=O)c(=O)[nH]c2c1)c1ccccc1
The “hERG current change (%, negative = inhibition) at 1uM” value of the first is higher: 16.5% for the first, 14.5% for the second.

Compared with `Cc1ccc(C2=NN(S(C)(=O)=O)C(c3ccc4nccnc4c3)C2)cc1` (centres unmarked), `Cc1ccc(CC2CC(=O)N(c3ccc4c(c3)OCCO4)C2=O)cc1` (centres unmarked) is higher in “hERG current change (%, negative = inhibition) at 1uM” value: -2.05% for the first, 3.09% for the second.

First: COC(=O)C1=C(C)NC2=C(C(=O)CC(c3cccs3)C2)C1c1ccsc1 (centres unmarked)
Second: COC(=O)CCC(=O)OC1(C)C(=O)C=C2C=C(C3CC3)N(c3cccc(C#N)c3)C=C2C1=O (centres unmarked)
The “hERG current change (%, negative = inhibition) at 1uM” value of the first is lower: 3.92% for the first, 13.4% for the second.

Going from `CCOC(=O)Cn1c(=O)oc2cc(S(=O)(=O)NC(C)(C)CC)ccc21` to `COc1ccccc1CCC(=O)OCC(=O)N1CCN(S(=O)(=O)c2ccc(C)cc2C)CC1`, the “hERG current change (%, negative = inhibition) at 1uM” value falls from 4.12% to -1.99%.

Going from `CC1CCN(S(=O)(=O)N2CCC(C(=O)NCc3ccc4c(c3)OCO4)CC2)CC1` to `Cc1ccc(CNC(=O)CN2C(=O)COc3ccc(S(=O)(=O)N4CCC(C)CC4)cc32)o1`, the “hERG current change (%, negative = inhibition) at 1uM” value falls from 9.22% to 8.05%.

First: CC(=O)NC(C)C(=O)OCc1ccc(Cl)cc1Cl (centres unmarked)
Second: CC(C)CC(NC(N)=O)C(=O)OCC(=O)Nc1ccc(SC(F)F)cc1 (centres unmarked)
The “hERG current change (%, negative = inhibition) at 1uM” value of the first is higher: 1.73% for the first, 0.791% for the second.

Compared with `CCCCc1c(C)c2ccc(OCC(C)=O)cc2oc1=O`, `CC(=O)Nc1cccc(OCC(=O)NCCC2=CCCCC2)c1` is lower in “hERG current change (%, negative = inhibition) at 1uM” value: 3.7% for the first, -12.1% for the second.

Going from `O=C(COc1ccccc1)Nc1cc(S(=O)(=O)N2CCOCC2)ccc1N1CCCC1` to `N#CC1=C(Nc2ccccc2)SC=C(c2ccc(Cl)c(Cl)c2)N=C1N1CCOCC1`, the “hERG current change (%, negative = inhibition) at 1uM” value falls from 5.18% to -27.1%.

Compared with `Cc1ccc(NC(=O)COC(=O)CCC(=O)c2ccc(C(C)(C)C)cc2)c([N+](=O)[O-])c1`, `CCc1c(O)nc(SCC(=O)Nc2ccccc2C)n(-c2ccc(C)cc2)c1=O` is higher in “hERG current change (%, negative = inhibition) at 1uM” value: 13% for the first, 24.7% for the second.

Compared with `Cc1ccc(-c2nc(C#N)c(NCC3CCCO3)o2)cc1` (centres unmarked), `COc1ccc(CCNC(=O)c2ccc(N3CCCC3=O)cc2)cc1OC` is higher in “hERG current change (%, negative = inhibition) at 1uM” value: 3.64% for the first, 6.54% for the second.

Compared with `COc1cc(SC#N)ccc1N=Cc1c(C)[nH]n(-c2cccc3ccccc23)c1=O`, `COc1ccc(OC)c(N=Cc2c(O)n(Cc3ccccc3)c(=S)[nH]c2=O)c1` is lower in “hERG current change (%, negative = inhibition) at 1uM” value: 13.4% for the first, 10% for the second.

Going from `Cc1nc(Nc2cccc(C(F)(F)F)c2)nc2c1C(=O)CC(C)C2` (centres unmarked) to `CC1Cc2ccccc2N1S(=O)(=O)c1ccc2c(c1)n(C)c(=O)c(=O)n2C` (centres unmarked), the “hERG current change (%, negative = inhibition) at 1uM” value falls from 9.18% to 1.88%.

Going from `CC(C)C[C@H]1C(=O)N2CCC[C@H]2[C@]2(O)O[C@](NC(=O)C3C=C4c5cccc6[nH]c(Br)c(c56)C[C@H]4N(C)C3)(C(C)C)C(=O)N12.CS(=O)(=O)O` (some centres unmarked) to `CC1CN(C(=O)Cn2cc(SCC(=O)N3CCOCC3)c3ccccc32)CC(C)O1` (centres unmarked), the “hERG current change (%, negative = inhibition) at 1uM” value falls from 19.4% to 13.2%.

Going from `CCc1c(C(=O)Nc2cc(C)cc(C)c2)[nH]c(C)c1C(C)=O` to `CCc1cccc(CC)c1NC(=S)NCC(c1cccnc1)N(C)C` (centres unmarked), the “hERG current change (%, negative = inhibition) at 1uM” value falls from 9.33% to 2.94%.

Going from `COc1ccc(/C(O)=C2/C(=O)C(=O)N(c3ccccn3)C2c2ccc(F)cc2)cc1` (centres unmarked) to `CC12CCC(=O)N1C(C(=O)Nc1ccccc1F)CS2` (centres unmarked), the “hERG current change (%, negative = inhibition) at 1uM” value falls from 11.8% to -5.04%.
